# Measured values reported in the supplement of paper PMC13380429.
# Experiments:
# Conditions in all cases: 72 h
# [1] = system: HepG2; test: relative viability EC50 (midpoint between 100% and the lowest measured viability); higher = less toxic
# [2] = system: Vero E6; test: as above
# [3] = system: HepG2; test: cell viability relative to DMSO; higher = less toxic
# [4] = system: U2OS; test: as above
# [5] = system: Caco-2; test: as above
# [6] = system: Vero E6; test: as above
# [7] = system: HepG2; test: drug sensitivity score (DSS) for viability; higher = more toxic; extreme values may be limits of the assay
# [8] = system: U2OS; test: as above
# [9] = system: Caco-2; test: as above
# [10] = system: Vero E6; test: as above
smiles,measurement,setting,value
COc1cc(N2CCN(C(C)=O)CC2)ccc1Nc1ncc(Cl)c(Nc2ccc(N3CCN(C(C)=O)CC3)cc2OC)n1 [KRCA-0008],relative viability EC50,[1],1.57 µM
same,relative viability EC50,[2],> 10 µM
same,cell viability,[3]; 1 nM,102%
same,cell viability,[3]; 10 nM,87.3%
same,cell viability,[3]; 100 nM,108%
same,cell viability,[3]; 1000 nM,84.6%
same,cell viability,[3]; 10000 nM,37.5%
same,cell viability,[4]; 1 nM,93.7%
same,cell viability,[4]; 10 nM,95.7%
same,cell viability,[4]; 100 nM,95.8%
same,cell viability,[4]; 1000 nM,96.9%
same,cell viability,[4]; 10000 nM,61.4%
same,cell viability,[5]; 1 nM,99.3%
same,cell viability,[5]; 10 nM,94.2%
same,cell viability,[5]; 100 nM,86.4%
same,cell viability,[5]; 1000 nM,94.3%
same,cell viability,[5]; 10000 nM,56.1%
same,cell viability,[6]; 1 nM,102%
same,cell viability,[6]; 10 nM,101%
same,cell viability,[6]; 100 nM,98.3%
same,cell viability,[6]; 1000 nM,103%
same,cell viability,[6]; 10000 nM,87.5%
same,drug sensitivity score,[7],5.8
same,drug sensitivity score,[8],2.4
same,drug sensitivity score,[9],3.2
same,drug sensitivity score,[10],0
